Measurements reported in PubChem BioAssay AID1631 (National Center for Advancing Translational Sciences (NCATS), 2009).
The whole screen tested about 260,000 compounds, of which about 890 (0.34%) were called active. The shares of active, inactive and inconclusive entries below differ from those in the screen. Calls follow the shape of the dose curve; as a rule, active = well fitted activation curve with a large enough effect; inconclusive = small, poorly fitted or top-dose-only effect; inactive = no such curve, though single readings can be large or run the other way. No potency is given beside an inconclusive call; the fits are too rough.

Biological target: Pyruvate kinase PKM (Homo sapiens) (UniProt P14618)
UniProt P14618, sequence (P14618 whole entry, looked up, canonical isoform): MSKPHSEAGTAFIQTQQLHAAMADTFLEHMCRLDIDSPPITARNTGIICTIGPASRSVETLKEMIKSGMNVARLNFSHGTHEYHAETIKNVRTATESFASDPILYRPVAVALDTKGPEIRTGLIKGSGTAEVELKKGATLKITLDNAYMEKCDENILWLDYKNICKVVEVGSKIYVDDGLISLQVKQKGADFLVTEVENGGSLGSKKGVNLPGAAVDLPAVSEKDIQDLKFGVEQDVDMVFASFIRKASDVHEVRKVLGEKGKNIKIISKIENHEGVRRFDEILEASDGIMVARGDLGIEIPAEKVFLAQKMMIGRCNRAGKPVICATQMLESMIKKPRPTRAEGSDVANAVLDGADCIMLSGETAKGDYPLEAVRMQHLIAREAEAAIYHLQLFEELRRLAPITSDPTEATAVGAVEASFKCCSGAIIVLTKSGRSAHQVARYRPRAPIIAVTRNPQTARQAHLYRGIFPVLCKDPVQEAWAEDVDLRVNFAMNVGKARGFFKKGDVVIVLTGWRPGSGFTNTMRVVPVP
Test: qHTS Assay for Activators of Human Muscle isoform 2 Pyruvate Kinase; also: nearly all actives have a fitted effect of over 55% in size
Details: purified PKM2, Kinase-Glo ATP luminescence; Potency: activation; activation: at 57.5 µM (top of the series), 0% is enzyme alone, no compound
Summary of the method: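 hPK-M2, >95% pure; 0.1 mM ADP / 0.5 mM PEP final; imidazole pH7.2 buffer w/ 7 mM MgCl2, 50 mM KCl; 1 h RT; Kinase-Glo lum. Intermediate enzyme activity for dual inhibitor/activator qHTS.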
Potency is read from the fitted curve at half-maximal effect; tags tell the direction and shape of the fitted curve.

| SMILES | Potency |
| --- | --- |
| O=C1CC(c2ccccc2)n2nc(NS(=O)(=O)c3ccccc3)nc2N1 (stereo unspecified) | inconclusive [rising, single point] |
| CC(C)C1Oc2ccccc2N(CC(=O)N(Cc2ccncc2)Cc2ccco2)C1=O (stereo unspecified) | inconclusive [rising, partial curve] |
| CCOC(=O)Cc1csc(NC(=O)CSc2nnc(C(C)C)n2CC)n1 | inconclusive [rising, partial curve] |
| COc1ccc(NC(=O)Cn2cc(S(=O)(=O)Cc3ccccc3)c3ccccc32)c(OC)c1 | inactive |
| CS(=O)(=O)Nc1ccccc1C(=O)NCCSCc1ccccc1 | inconclusive [rising, single point] |
| COc1ccc(C(=O)C(CN2CCOCC2)c2ccccc2)cc1F (stereo unspecified) | inactive |
| CCN1C(=O)C(O)(CC(=O)/C=C/C=C/c2ccccc2)c2ccccc21 (stereo unspecified) | inactive |
| O=C(N/N=C/c1ccccc1)c1cc[n+]([O-])cc1 | inactive |
| CC(=O)Nc1cc(C(=O)OCc2cccc([N+](=O)[O-])c2)ccc1C | inconclusive [rising, single point] |
| CC(=O)c1cc(NC(=O)c2cccc(C(F)(F)F)c2)c(=O)oc1C | inconclusive [rising, partial curve] |
| N/C(=N\OC(=O)/C=C/c1ccccc1)c1ccccc1 | inactive |
| COC(=O)CC(=O)CSc1nc(C)cc(C)c1C#N | inconclusive [rising, single point] |
| CC(C)n1c(SCC(=O)Nc2nc3c(s2)CCCC3)nc2c1c(=O)n(C)c(=O)n2C | inactive |
| O=C(COc1ccc(Cl)cc1)NCCCn1ccnc1 | inconclusive [rising, single point] |
| O=C1N/C(=C/c2ccc(N3CCOCC3)cc2)C(=O)N1Cc1ccc(F)cc1 | inactive |
| COc1ccc(S(=O)(=O)Nc2ccc(-n3cccc3)cc2)cc1 | active: 10 µM |
| CCCC(=O)OCCNc1cc(SCc2ccco2)c2nonc2c1[N+](=O)[O-] | inconclusive [rising, partial curve] |
| C=CCN1C(=O)C(CC(=O)Nc2ccc(OC)cc2)N(Cc2ccco2)C1=S (stereo unspecified) | inconclusive [rising, partial curve] |
| COc1ccc2c(c1)C=CC1(O2)N(CCO)c2ccccc2C1(C)C (stereo unspecified) | inconclusive [rising, partial curve] |
| O=C(NCCCN1CCCC1)c1ccc2c(c1)N(Cc1ccccc1F)C(=O)c1ccccc1S2=O (stereo unspecified) | inactive |
| Cc1ccccc1NS(=O)(=O)c1ccc2c(c1)n(C)c(=O)n2C | active: 2.51 µM |
| Cc1cc(=O)[nH]c2ccc(S(=O)(=O)Nc3ccc(O)cc3)cc12 | active: 2.24 µM |
| Cc1cccc(N2CCN(C(c3ccncc3)c3nnnn3C(C)(C)C)CC2)c1C (stereo unspecified) | inconclusive [rising, single point] |
| CSc1sc(C(=O)NN)c2c1C1(CCC2)SCCS1 | inconclusive [rising, single point] |
| c1ccc(CSc2ncnc3sccc23)cc1 | inconclusive [rising, single point] |
| C=CCn1c(CCSCc2ccccc2)n[nH]c1=S | inconclusive [rising, single point] |

| SMILES | Potency |
| --- | --- |
| Cc1cc2cc(CNC(=O)c3ccco3)ccc2n1C | inconclusive [rising, single point] |
| O=C(O)CCCNC(=O)c1cncc(Br)c1 | inactive |
| O=C(c1ccco1)N1CCCN(Cc2nc(-c3ccc4c(c3)OCO4)no2)CC1 | inconclusive [rising, single point] |
| C/C(=C\c1ccc(C)o1)C(=O)c1c(C)cc(C)[nH]c1=O | active: 10 µM |
| N#Cc1cc2c(nc1SCc1cccnc1)CCCC2 | inconclusive [rising, partial curve] |
| COc1ccc(-n2c(=S)[nH]c3ncccc3c2=O)cc1 | inconclusive [rising, single point] |
| COc1cc(C(=O)NCCN2C(=O)S/C(=C\c3cccs3)C2=O)cc(OC)c1OC | inconclusive [rising, full curve] |
| COc1cccc(/C=C2\C(=O)C(=O)c3ccccc32)c1 | inactive |
| CCN(c1ccc(NC(=O)COC(=O)c2ccc(C)c(S(=O)(=O)N3CCOCC3)c2)cc1)C(C)C | inconclusive [rising, single point] |
| Cc1ccc(C2CC(=O)c3cnc(NC(=O)c4ccco4)nc3C2)cc1 (stereo unspecified) | inactive |
| COc1ccc(N(CC(=O)N2CCc3ccccc3C2)S(=O)(=O)c2ccccc2)cc1 | inconclusive [rising, partial curve] |
| COc1ccc2c(c1)c(=O)oc1c(C)c(OCc3cc(C(=O)O)oc3C)ccc12 | inconclusive [rising, full curve, poor fit] |
| Cc1cc(S(=O)(=O)Nc2ccc(C(=O)N3CCN(C(=O)c4ccco4)CC3)cc2)ccc1F | inconclusive [rising, partial curve] |
| O=c1c2ccccc2nnn1CSc1nnnn1-c1ccc(O)cc1 | active: 14.1 µM |
| O=C(NCc1cccs1)C1CCN(S(=O)(=O)c2cccs2)CC1 | active: 15.8 µM |
| CCN(CC)c1ccc(/C=C(\C#N)C(=O)c2ccc(Br)cc2)cc1 | inactive |
| Cc1ccc(C(C)(C)NC(=O)C2CCC(=O)N(CC3CCCCC3)C2)cc1 (stereo unspecified) | inactive |
| O=c1[nH][nH]c(=O)c2c(NS(=O)(=O)c3ccccc3)cccc12 | active: 11.2 µM |
| CC(OC(=O)c1cccs1)C(=O)NCc1ccco1 (stereo unspecified) | inactive |
| COc1ccccc1N1CCN(C(=O)CCC(=O)N2CCN(c3ccccc3OC)CC2)CC1 | inactive |
| COc1ccc2oc(=N)c(C(=O)Nc3ccccc3Cl)cc2c1 | inactive |
| CCOP1(=O)OCC2OC(n3cnc4c(N)ncnc43)C(O)C2O1 (stereo unspecified) | inactive |
| O=C(CN1C(=O)C(=O)c2ccccc21)NCCc1ccccc1 | active: 31.6 µM |
| O=S(=O)(NNc1ccc(F)cc1F)c1cccc(Cl)c1 | inconclusive [rising, partial curve] |
| CCOC(=O)c1c(-c2ccc(C)o2)csc1NC(=O)CSc1nnnn1-c1ccccc1 | active: 7.94 µM |
| COc1ccc(C(c2nnnn2Cc2cccs2)N2CCN(c3ccccc3F)CC2)cc1 (stereo unspecified) | inconclusive [rising, partial curve, poor fit] |

| SMILES | Potency |
| --- | --- |
| N/C(=N\OC(=O)c1ccccc1Cl)c1ccc(Cl)cc1 | inactive |
| Cc1ccc(-c2cc(-c3ccc4c(c3)OCO4)c(C#N)c(N)n2)o1 | active: 10 µM |
| CCCC/C(O)=N\S(=O)(=O)c1ccc(N=NN(C)C)cc1 | inactive |
| Cc1coc2c(O)cc3c(c12)OC1(N2CCCCC2)C(=O)NCCCC31 (stereo unspecified) | inconclusive [rising, partial curve] |
| Cc1[nH]c2ccccc2c1/C=N/Nc1nc(Nc2ccc(F)cc2)nc(N2CCOCC2)n1 | inconclusive [rising, single point] |
| CCNC(=O)COc1ccc(/C=N/NC(=O)c2cccnc2)cc1OC | inconclusive [rising, single point] |
| CN(Cc1ccccc1)C(=O)C1CCCN(Cc2ccc(Cl)cc2)C1 (stereo unspecified) | inconclusive [rising, full curve, poor fit] |
| COc1ccccc1N1CCN(C(=O)c2ccc(CSc3ccccc3)cc2)CC1 | inconclusive [rising, partial curve] |
| COc1ccc2nc(S(=O)Cc3ncc(C)c(OC)c3C)[nH]c2c1 (stereo unspecified) | inconclusive [rising, partial curve] |
| CCOc1cnc(-c2c(-c3c(Cl)cccc3Cl)noc2C)o1 | inconclusive [rising, single point] |
| CCCCNC(=O)CS(=O)Cc1nc(-c2cccc(Cl)c2)oc1C (stereo unspecified) | inactive |
| O=C1NN(c2ccccc2)C(=O)/C1=C\c1cccc(OC(=O)c2cccs2)c1 | inconclusive [rising, single point] |
| CCOc1ccc(S(=O)(=O)Nc2cc(Sc3ncn[nH]3)c3oc(=O)sc3c2)cc1 | inconclusive [rising, partial curve] |
| O=c1c2cc(N3CCOCC3)ccc2[nH]c(=S)n1Cc1ccco1 | inconclusive [rising, partial curve] |
| COC(=O)c1cc(OC)c(OC)cc1NC(=O)CCc1ccc(C)o1 | inconclusive [rising, partial curve] |
| COc1ccc(CCNC(=O)COc2ccc(S(=O)(=O)NC3CCCCC3)cc2Cl)cc1OC | inactive |
| CC(=O)Nc1cccc(NC(=O)CSc2ccc(-c3cccnc3)nn2)c1 | active: 31.6 µM |
| Cc1csc2ncnc(NNC(=O)c3ccc(Cl)cc3)c12 | inconclusive [rising, single point] |
| COc1ccc(Cc2[nH]n3c(=O)cc(C(C)C)nc3c2-c2ccccc2)cc1 | inactive |
| CCCCC(C(=O)O)C(C)CC(=O)Nc1nncs1 (stereo unspecified) | inconclusive [rising, single point] |
| Nc1ccnn1Cc1cccnc1 | inconclusive [rising, partial curve] |
| Cc1[nH]c(=S)c(C#N)c(C)c1C(=O)Nc1ccccc1 | inactive |
| CC(Oc1ccc(Cl)cc1Cl)C(=O)Nc1cccc(O)c1 (stereo unspecified) | inconclusive [rising, single point] |
| Cc1ccc(N2C(=O)C3C4C=CC(CNC(=S)N5CCN(c6ccccc6)CC5)(O4)C3C2=O)cc1 (stereo unspecified) | inconclusive [rising, partial curve] |
